Assay results: PubChem BioAssay AID1460 (National Center for Advancing Translational Sciences (NCATS), 2008)
Among all 270,000 compounds or so, about 5,800 (2.1%) were called active. This list was built around the results that the source calls inconclusive (neither active nor inactive); the mix of calls is not that of the screen. Calls come from the whole dose curve; as a rule, active = well fitted inhibition curve with a large enough effect; inconclusive = small, poorly fitted or top-dose-only effect; inactive = flat fitted curve, though single readings scatter. Where the call is inconclusive, the potency comes from a doubtful curve fit.
Note: nearly all actives have a fitted effect of over 55% in size.
Potency is the fitted concentration of half-maximal effect; tags give direction and shape of the fitted curve.

These molecules were tested against Microtubule-associated protein tau (Homo sapiens) (UniProt P10636) (assay: qHTS for Inhibitors of Tau Fibril Formation, Thioflavin T Binding). Conditions: recombinant tau K18 P301L (four-repeat tau fragment), heparin-induced fibrillization, ThT fluorescence; series mostly up to 57.4 µM.
Chain of UniProt P10636 (P10636 whole entry, looked up, the tested form may be a part): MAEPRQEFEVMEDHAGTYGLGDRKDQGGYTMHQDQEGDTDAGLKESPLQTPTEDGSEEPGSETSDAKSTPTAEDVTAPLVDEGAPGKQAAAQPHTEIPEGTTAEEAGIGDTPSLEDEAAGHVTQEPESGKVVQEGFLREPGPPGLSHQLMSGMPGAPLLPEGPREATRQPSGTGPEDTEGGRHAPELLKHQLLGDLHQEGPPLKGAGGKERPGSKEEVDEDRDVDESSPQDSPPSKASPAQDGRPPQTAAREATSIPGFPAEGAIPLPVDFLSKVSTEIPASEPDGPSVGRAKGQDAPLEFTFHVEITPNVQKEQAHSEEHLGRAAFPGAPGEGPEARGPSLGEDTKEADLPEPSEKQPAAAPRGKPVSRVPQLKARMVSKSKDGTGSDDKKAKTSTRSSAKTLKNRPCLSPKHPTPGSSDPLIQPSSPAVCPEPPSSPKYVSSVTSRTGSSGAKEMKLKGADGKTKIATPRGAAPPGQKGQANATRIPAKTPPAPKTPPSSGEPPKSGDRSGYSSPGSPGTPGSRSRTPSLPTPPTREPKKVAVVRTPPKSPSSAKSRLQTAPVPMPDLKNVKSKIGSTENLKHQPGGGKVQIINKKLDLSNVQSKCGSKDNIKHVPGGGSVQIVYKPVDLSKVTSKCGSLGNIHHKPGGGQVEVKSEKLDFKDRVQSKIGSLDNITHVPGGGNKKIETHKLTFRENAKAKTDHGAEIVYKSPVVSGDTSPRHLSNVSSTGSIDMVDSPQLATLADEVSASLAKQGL
Outline: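 K18 P301L tau (15 uM + 0.24 uM Alexa 594-tagged), heparin 20 uM, NaOAc pH 7, 6 h 37 C; ThT 30 uM, 1 h RT, ex 450/em 510 nm.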
With `CC(C)C1CC(O)(C2(O)CCCCC2)ON1` (stereo unspecified) the Potency was “inactive”.
`CCCCNC(=O)CCC(=O)Nc1ccc2nc(N3CCCCC3)cc(C)c2c1` was tested, and the Potency was inconclusive: 39.8 µM [inhibitor, single point].
`COc1ccc(OC)c(-c2noc(N3CCN(c4ccc(Cl)cc4)CC3)n2)c1` was tested, and the Potency was inconclusive: 15.8 µM [inhibitor, partial curve].
For `CCCCC1=CC2=CC(=O)C(C)(OC(=O)CC)C(=O)C2=CN1CCCCO` (stereo unspecified), the Potency was inconclusive: 39.8 µM [inhibitor, single point].
In the case of `O=[N+]([O-])c1ccc(NCCCNS(=O)(=O)c2ccccc2)cc1`, the Potency is reported as inconclusive: 12.6 µM [inhibitor, partial curve].
For `COc1ccccc1C(=O)C1Nc2ccccc2-c2nnc(SC)nc2O1` (stereo unspecified), the Potency was inconclusive: 28.2 µM [inhibitor, single point].
For `CCCOc1cccc(C(=O)N(Cc2ccco2)C2CCS(=O)(=O)C2)c1` (stereo unspecified), the Potency was “inactive”.
In the case of `Cc1sc2nc(CN3CCCC3)nc(Cl)c2c1C`, the Potency is reported as “inactive”.
`COc1cc2c(cc1OC)[C@@H]1CC(=O)[C@@H](CC(C)C)CN1CC2` was tested, and the Potency was inconclusive: 39.8 µM [inhibitor, single point].
With `CCc1ccc(NC(=O)CC2C(=O)N(c3cccc(C)c3)C(=O)N2C2CC2)cc1` (stereo unspecified) the Potency was “inactive”.
In the case of `CCc1cccc(NC(=O)CCc2c(C)nc3c(-c4ccccc4)c(C)nn3c2C)c1`, the Potency is reported as inconclusive: 12.6 µM [inhibitor, partial curve].
With `O=C(Nc1ccc2nc(-c3ccco3)[nH]c2c1)c1ccco1` the Potency was inconclusive: 17.8 µM [inhibitor, partial curve].
With `CC(C)OC(=O)CSc1nnc(-c2ccc([N+](=O)[O-])cc2)o1` the Potency was inconclusive: 14.1 µM [inhibitor, partial curve].
With `CCOc1ccc(C(=S)NC2CCCCC2)cc1` the Potency was inconclusive: 20 µM [inhibitor, single point].
With `COc1cc(OC)cc(C2C(C#N)=C(N)Oc3n[nH]c(-c4cccnc4)c32)c1` (stereo unspecified) the Potency was inconclusive: 10 µM [inhibitor, partial curve].
In the case of `Cc1ncn(-c2ccc(C(=O)Oc3ccccc3)cn2)n1`, the Potency is reported as inconclusive: 17.8 µM [inhibitor, single point].
For `COc1ccc(N2CCN(C(=O)CN(c3ccccc3)S(=O)(=O)c3ccc(OC)cc3)CC2)cc1`, the Potency was inconclusive: 22.4 µM [inhibitor, partial curve].
In the case of `C(=N\N(c1ccccc1)c1ccccc1)/c1ccc(N2CCOCC2)s1`, the Potency is reported as inconclusive: 28.2 µM [inhibitor, single point].
In the case of `COc1ccc(-c2csc(Nc3cccnc3)n2)cc1OC`, the Potency is reported as inconclusive: 4.47 µM [inhibitor, partial curve].
For `Cc1ccc(NC(=O)CNc2ccc(OC(C)C)cc2)c(C)c1`, the Potency was inconclusive: 28.2 µM [inhibitor, partial curve].
With `CCN1CCN(c2ccc(NC(=O)CCc3c(C)nc4c(-c5ccc(F)cc5)c(C)nn4c3C)cc2)CC1` the Potency was inconclusive: 17.8 µM [inhibitor, partial curve].
With `Cc1ccc(C(=O)N/N=C\c2cc3c(cc2Br)OCO3)s1` the Potency was inconclusive: 11.2 µM [inhibitor, partial curve, poor fit].
In the case of `CC(=O)Nc1sc2c(c1C(c1ccccn1)N1CCCC1)CCCC2` (stereo unspecified), the Potency is reported as “inactive”.
For `C/C(O)=C\c1nc2ccccc2oc1=O`, the Potency was inconclusive: 17.8 µM [inhibitor, partial curve].
`CCCN1C(=O)C(O)(CC(=O)c2ccc(C(C)C)cc2)c2ccccc21` (stereo unspecified) was tested, and the Potency was “inactive”.
For `CN1CCN(/N=C/c2c3ccccc3c(Cl)c3ccccc23)CC1`, the Potency was inconclusive: 28.2 µM [inhibitor, partial curve].
`Clc1ccc(OCc2cn3cccnc3n2)c2ncccc12` was tested, and the Potency was inconclusive: 2 µM [inhibitor, full curve].
In the case of `COc1ccc(NC(=O)CN2CCN(Cc3ccccc3Cl)S2(=O)=O)cc1Cl`, the Potency is reported as “inactive”.
In the case of `COc1ccc2c(c1)O[C@H](c1ccc3c(c1)OCO3)[C@@H](OC(=O)Nc1ccc(C)c(Br)c1)C2=O`, the Potency is reported as inconclusive: 0.0251 µM [inhibitor, full curve, poor fit].
For `CC/C(Cc1ccccc1)=N/NC(=O)c1cccc(Br)c1`, the Potency was inconclusive: 39.8 µM [inhibitor, single point].
For `CCc1ccccc1NS(=O)(=O)c1ccc2c(c1)CCCN2C(=O)C1CCC1`, the Potency was inconclusive: 8.91 µM [inhibitor, single point].
In the case of `CCN1CCN(C(=S)Nc2ccc3nc(N4CCN(CC)CC4)cc(C)c3c2)CC1`, the Potency is reported as inconclusive: 10 µM [inhibitor, partial curve].
`CC(=O)Oc1ccc(/C=c2\sc3ncnn3c2=O)cc1` was tested, and the Potency was inconclusive: 20 µM [inhibitor, partial curve].
In the case of `CCOc1ccc(NC(=O)COC(=O)c2ccc3c(c2)C(=O)N(CCc2ccccc2)C3=O)cc1`, the Potency is reported as inconclusive: 2.24 µM [inhibitor, full curve].
For `COC(=O)C1=C(C)NC(=O)/C1=C/c1ccc(CNS(=O)(=O)c2ccc(C)cc2)o1`, the Potency was inconclusive: 22.4 µM [inhibitor, partial curve].
`Cc1ccc2nc(-c3ccc(F)cc3)c(NC(C)(C)CC(C)(C)C)n2c1` was tested, and the Potency was inconclusive: 12.6 µM [inhibitor, partial curve].
In the case of `C/C(=N/NC(=O)CC1N=C(Cc2ccccc2)NNC1=O)c1cccnc1` (stereo unspecified), the Potency is reported as “inactive”.
`Cc1ccc2nsnc2c1NC(=O)c1ccc(-c2cc(Cl)ccc2Cl)o1` was tested, and the Potency was inconclusive: 11.2 µM [inhibitor, partial curve].
`O=C(C1=C[C@H](c2csc3ccccc23)C[C@H](OCCCCO)O1)N1CCN(Cc2ccc3c(c2)OCO3)CC1` was tested, and the Potency was inconclusive: 28.2 µM [inhibitor, single point].
For `COc1cc(C2SCCS2)cc(Br)c1Oc1ncccc1[N+](=O)[O-]`, the Potency was inconclusive: 14.1 µM [inhibitor, partial curve, poor fit].
For `Cc1ccc(C(=O)N2CCn3c(C)ccc3C2C)cc1` (stereo unspecified), the Potency was inconclusive: 17.8 µM [inhibitor, partial curve].
With `Cc1[nH]n(-c2ccccc2)c(=O)c1N=Nc1ccccc1C(=O)N1CCOCC1` the Potency was inconclusive: 22.4 µM [inhibitor, partial curve].
With `CCOc1cc(CNC(=O)C2CCN(c3nc4ccccc4[nH]3)CC2)cc(OCC)c1OCC` the Potency was inconclusive: 11.2 µM [inhibitor, partial curve, poor fit].
With `c1ccc(CCNc2ncnc3scc(C4COc5ccccc5O4)c23)cc1` (stereo unspecified) the Potency was inconclusive: 31.6 µM [inhibitor, single point].
`Cc1c(C)c2cc3c(c(C)c2oc1=O)OCN(CCc1ccccc1)C3` was tested, and the Potency was “inactive”.
With `COc1ccc(Cl)cc1NC(=O)c1cc(-c2cc(C)ccc2O)n[nH]1` the Potency was inconclusive: 0.631 µM [inhibitor, full curve, poor fit].
With `COc1cccc(CNC(=O)c2c(C)oc3ncnc(N4CCOCC4)c23)c1` the Potency was “inactive”.
With `Cc1ccccc1C(=O)Nc1cc2c(cc1N1CCCCC1)n(C)c(=O)n2C` the Potency was inconclusive: 31.6 µM [inhibitor, partial curve].
For `Cc1ccc2nc(N3CCN(C=O)CC3)nc(-c3ccccc3)c2c1`, the Potency was inconclusive: 31.6 µM [inhibitor, single point].
For `CCOc1ccc2nc(SCC3CC3(Cl)Cl)[nH]c2c1` (stereo unspecified), the Potency was inconclusive: 0.794 µM [inhibitor, full curve, poor fit].
In the case of `N#CC(C(=O)Nc1ccccc1)=C1Nc2ccccc2N1`, the Potency is reported as inconclusive: 15.8 µM [inhibitor, partial curve].
For `Cc1ccc(S(=O)(=O)N2CCN(S(=O)(=O)N3CCOCC3)CC2)c(C)c1`, the Potency was “inactive”.
For `COc1ccc(C)cc1NC(=O)C(=O)NCC(c1cccnc1)N1CCN(c2ccccc2F)CC1` (stereo unspecified), the Potency was “inactive”.
For `C/C(=C\C(=O)c1cccnc1)Nc1ccc(C)c(C)c1`, the Potency was inconclusive: 28.2 µM [inhibitor, single point].
`O=c1cc(-c2ccc(Br)cc2)[nH][nH]1` was tested, and the Potency was inconclusive: 2.51 µM [inhibitor, partial curve].
For `Cc1ccc2cccc(NC(=O)c3cccc4c(Br)cccc34)c2n1`, the Potency was “inactive”.
In the case of `O=C(CN1CCN(c2ccccc2F)CC1)c1ccc2cc[nH]c2c1`, the Potency is reported as inconclusive: 17.8 µM [inhibitor, single point].
`C/C(=N\NC(=O)c1ccccc1)c1cc2cc([N+](=O)[O-])ccc2oc1=O` was tested, and the Potency was inconclusive: 12.6 µM [inhibitor, partial curve].
`CCCCc1ccc(-c2nc(NC(=O)C3C4CCC(O4)C3C(=O)O)sc2C)cc1` (stereo unspecified) was tested, and the Potency was inconclusive: 12.6 µM [inhibitor, partial curve].
`COc1ccc(-c2noc(CCC(=O)Nc3cccc(C)c3C)n2)cc1OC` was tested, and the Potency was inconclusive: 15.8 µM [inhibitor, partial curve].
`Cc1ccc(-n2nc(C)c3c2OC(N)=C(C#N)C3c2ccc(C)o2)cc1` (stereo unspecified) was tested, and the Potency was active: 5.01 µM.
`C=CCOc1cccc(C2/C(=C(/O)c3ccc(Cl)cc3)C(=O)C(=O)N2CCN2CCOCC2)c1` (stereo unspecified) was tested, and the Potency was inconclusive: 39.8 µM [inhibitor, single point].
For `COc1cccc(NC(=O)C2CCN(S(=O)(=O)c3c(C)noc3C)CC2)c1`, the Potency was “inactive”.
`CC(C)CN(CC(C)C)C1=N/C(=C\c2ccco2)C(=O)N1c1ccccc1` was tested, and the Potency was inconclusive: 28.2 µM [inhibitor, single point].
For `CCc1cccc(NC(=O)Nc2cn(C)c(=O)c3ccccc23)c1`, the Potency was inconclusive: 39.8 µM [inhibitor, single point].
With `CC1=NN(c2ccccc2)C(=O)/C1=C/c1c(O)n(-c2ccc(F)c(Cl)c2)[nH]c1=O` the Potency was active: 5.01 µM.
